The values below come from PubChem BioAssay (NCI).

Each structure is given as a SMILES string.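 Cultured in 96-well plates, cells were exposed to test compound for 48 hours across five concentrations. GI50 = concentration required for 50% inhibition of growth. At the TGI there is no net growth.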

This experiment concerns NCI-H322M lung. Briefly: NCI anticancer screen, dose series, 48 h.
As to `COc1ccc([C@@H]2[C@@H](O)C(=O)N2c2cc(OC)c(OC)c(OC)c2)cc1`, the GI50 was 0.284 µM and the TGI was greater than 100 µM.
On the same counts, the results for `Cc1cc(C(NC(=O)CCCCCNc2cccc3c2C(=O)N(C2CCC(=O)NC2=O)C3=O)c2cccnc2)c(O)c2ncccc12` (stereo unspecified) are 0.0494 µM and 4.62 µM.
In the case of `Cc1nn(-c2ccccc2)c2ncnc(N/N=C/c3ccccc3O)c12`, the GI50 was 0.319 µM and the TGI is greater than 67.3 µM.
